Here are results for 23 molecules from ChEMBL document CHEMBL4888484, “Replenishing the malaria drug discovery pipeline: Screening and hit evaluation of the MMV Hit Generation Library 1 (HGL1) against asexual blood stage Plasmodium falciparum ,using a nano luciferase reporter read-out” (2022).

SMILES strings stand for the structures. About 540 (0.36%) of roughly 150,000 compounds showed an effect of 50% or more. Some of the results follow.

For the experiment, the system named is Plasmodium falciparum. Put plainly: Primary screen in NF54 nanoGlo assay, in single point, at 2uM, 72h; a lower Z score goes with more inhibition. The class given is functional, Erythrocyte. Particulars: timepoint 72 hour.
As for `Cc1ccc(-c2cc(C(=O)Nc3ncccn3)c3ccccc3n2)cc1C`, the % Inhibition – broadly, the change of the read-out against control, counted positive when it falls – is listed as -8% and the Z score amounted to 0.99.

For `COc1ccccc1NC(=O)C1CCCCC1C(=O)NCCc1ccccc1` (stereo unspecified), the “% Inhibition” value is 35% and the Z score is on record as -3.99.

For the molecule `Cc1nn(-c2nc3ccccc3[nH]2)c(O)c1CCC(C)C`, the “% Inhibition” value is 95% and the Z score is given as -12.21.

Turning to `COCC(=O)N(Cc1cccc(C)c1)c1ccc(CC(=O)NC(C)C)cc1`, the “% Inhibition” value is -2% and the Z score stood at 0.32.

As for `CCOCC1CCN(c2ncnc3c2Cc2ccccc2OC3)CC1`, the “% Inhibition” value is on record as -12% and the Z score is 1.27.

With `Cc1cccc(OC(F)F)c1NC(=O)N1CC[C@H](Oc2cccc(Cl)c2)C1`, the “% Inhibition” value was -5% and the Z score is recorded as 0.52.

Take `CC(C)[C@@H](O)CNCc1cn(C2CCCC2)nc1-c1ccccn1`: the “% Inhibition” value was -1% and the Z score is given as 0.06.

As for `COc1cccc(NC(=O)c2cccc(N3CCCN(Cc4ccccc4)C3=O)c2)c1`, the “% Inhibition” value is on record as 3% and the Z score is reported as -0.52.

Regarding `Cc1cc(C(=O)Nc2ccc3c(c2)N(C)C(=O)[C@H](C)O3)ccc1N1CCOCC1`, the “% Inhibition” value is reported as 4% and the Z score is -0.7.

Consider `N#CCCn1ncc2c(N3CCN(c4ccccn4)CC3)ncnc21`, for which the “% Inhibition” value is on record as -3% and the Z score worked out at 0.45.

On to `O=C(CCn1ccccc1=O)N1CCc2[nH]cnc2C1`, for which the “% Inhibition” value is -4% and the Z score amounted to 0.71.

As for `Cc1cccc(NC(=O)Cc2noc(-c3scnc3C)n2)c1C`, the “% Inhibition” value is reported as -13% and the Z score was 1.99.

Regarding `CC(C)CC(=O)N(C)[C@H]1CCS(=O)(=O)C1`, the “% Inhibition” value is recorded as -37% and the Z score came out at 4.31.

As to `CN(Cc1cscn1)C(=O)N[C@H]1CCCc2ccccc21`, the “% Inhibition” value was -1% and the Z score was 0.24.

Turning to `CC1CN(CCN2CCCCC2c2nccs2)CCO1` (stereo unspecified), the “% Inhibition” value was -13% and the Z score is listed as 1.33.

As to `CC(C)Cc1n[nH]c(NC(=O)c2ccc(Nc3ncccn3)cc2)n1`, the “% Inhibition” value is recorded as -14% and the Z score was determined as 1.57.

For the molecule `Cn1c(CNC(=O)[C@H]2CCCCC2(C)C)cc(=O)n1-c1ccccc1`, the “% Inhibition” value is -18% and the Z score was 2.01.

Regarding `C[C@@H](CNC(=O)c1ccn2cncc2c1)Nc1ccccc1`, the “% Inhibition” value is 13% and the Z score is -1.15.

For `CCN1C(=O)Cc2cc(NC(=O)c3cccc4ccccc34)ccc21`, the “% Inhibition” value is on record as 6% and the Z score is recorded as -0.63.

As for `CCC(=O)N(C)[C@@H](Cc1cccc(C(F)(F)F)c1)C1CCN(Cc2ccc(C(=O)OC)cc2)CC1`, the “% Inhibition” value is listed as -3% and the Z score worked out at 0.34.

As for `O=C(N[C@H]1CCS(=O)(=O)C1)c1cc(-c2ccccc2)on1`, the “% Inhibition” value is on record as -6% and the Z score is given as 0.92.

In the case of `O=C(CCN(Cc1ccccc1)c1nc(-c2cccc(Br)c2)nc2ccccc12)N1CCOCC1`, the “% Inhibition” value is -1% and the Z score stood at 0.27.

For `Cc1noc(C)c1CN(C)Cc1nnc(-c2ccc(Cl)cc2)o1`, the “% Inhibition” value is recorded as 2% and the Z score is given as -0.24.
